Measurements from article PMC6955252.
No constants are given. Whether binding was seen depends on the method and setting. In cells and extracts the contact can be indirect. Some results given as binding are weak or reduced against the parent protein; the word gives no strength. For part of these data: Sequences can lack the tags named with a protein.

The chains behind the UniProt entries cited, without tags or fusion partners.
UniProt P63010: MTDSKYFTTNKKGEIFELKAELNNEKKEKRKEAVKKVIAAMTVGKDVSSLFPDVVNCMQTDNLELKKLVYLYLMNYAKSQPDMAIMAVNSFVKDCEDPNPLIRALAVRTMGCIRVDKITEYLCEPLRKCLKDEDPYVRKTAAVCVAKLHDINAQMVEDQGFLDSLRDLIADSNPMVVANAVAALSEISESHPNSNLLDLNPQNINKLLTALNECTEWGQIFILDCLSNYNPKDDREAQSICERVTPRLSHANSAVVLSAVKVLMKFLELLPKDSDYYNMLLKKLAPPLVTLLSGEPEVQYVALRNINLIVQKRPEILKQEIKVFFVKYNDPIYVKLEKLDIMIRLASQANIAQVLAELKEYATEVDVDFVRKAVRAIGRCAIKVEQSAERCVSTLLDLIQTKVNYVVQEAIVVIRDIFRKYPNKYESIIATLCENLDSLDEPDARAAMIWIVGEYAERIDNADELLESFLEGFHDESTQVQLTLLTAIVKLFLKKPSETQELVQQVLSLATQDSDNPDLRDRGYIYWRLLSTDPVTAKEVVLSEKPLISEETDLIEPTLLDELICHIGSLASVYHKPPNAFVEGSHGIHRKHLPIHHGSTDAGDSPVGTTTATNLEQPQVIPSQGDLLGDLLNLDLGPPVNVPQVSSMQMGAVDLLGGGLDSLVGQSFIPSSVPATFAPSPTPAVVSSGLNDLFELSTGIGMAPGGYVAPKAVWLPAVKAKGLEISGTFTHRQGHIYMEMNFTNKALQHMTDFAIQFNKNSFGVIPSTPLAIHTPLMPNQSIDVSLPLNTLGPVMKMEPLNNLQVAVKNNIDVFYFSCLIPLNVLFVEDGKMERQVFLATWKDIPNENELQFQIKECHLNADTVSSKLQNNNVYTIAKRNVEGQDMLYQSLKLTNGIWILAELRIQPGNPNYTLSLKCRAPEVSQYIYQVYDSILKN
UniProt P25098: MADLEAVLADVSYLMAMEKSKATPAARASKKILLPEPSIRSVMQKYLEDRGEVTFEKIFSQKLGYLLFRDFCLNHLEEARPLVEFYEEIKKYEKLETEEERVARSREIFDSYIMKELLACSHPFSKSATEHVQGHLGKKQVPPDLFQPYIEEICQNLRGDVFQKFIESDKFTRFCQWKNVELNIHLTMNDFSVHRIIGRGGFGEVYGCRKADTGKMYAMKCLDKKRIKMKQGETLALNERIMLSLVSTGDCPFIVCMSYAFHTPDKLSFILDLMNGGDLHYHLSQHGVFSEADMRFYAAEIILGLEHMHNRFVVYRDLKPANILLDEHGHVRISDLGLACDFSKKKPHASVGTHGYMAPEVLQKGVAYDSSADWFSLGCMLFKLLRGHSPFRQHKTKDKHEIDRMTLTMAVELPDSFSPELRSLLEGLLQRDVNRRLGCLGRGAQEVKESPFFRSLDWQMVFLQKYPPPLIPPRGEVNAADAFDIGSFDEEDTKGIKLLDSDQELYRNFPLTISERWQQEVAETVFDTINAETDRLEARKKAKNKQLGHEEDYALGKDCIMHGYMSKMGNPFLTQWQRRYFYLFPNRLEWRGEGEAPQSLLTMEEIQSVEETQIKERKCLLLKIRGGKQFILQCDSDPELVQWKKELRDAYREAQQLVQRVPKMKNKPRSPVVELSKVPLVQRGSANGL
UniProt P34947: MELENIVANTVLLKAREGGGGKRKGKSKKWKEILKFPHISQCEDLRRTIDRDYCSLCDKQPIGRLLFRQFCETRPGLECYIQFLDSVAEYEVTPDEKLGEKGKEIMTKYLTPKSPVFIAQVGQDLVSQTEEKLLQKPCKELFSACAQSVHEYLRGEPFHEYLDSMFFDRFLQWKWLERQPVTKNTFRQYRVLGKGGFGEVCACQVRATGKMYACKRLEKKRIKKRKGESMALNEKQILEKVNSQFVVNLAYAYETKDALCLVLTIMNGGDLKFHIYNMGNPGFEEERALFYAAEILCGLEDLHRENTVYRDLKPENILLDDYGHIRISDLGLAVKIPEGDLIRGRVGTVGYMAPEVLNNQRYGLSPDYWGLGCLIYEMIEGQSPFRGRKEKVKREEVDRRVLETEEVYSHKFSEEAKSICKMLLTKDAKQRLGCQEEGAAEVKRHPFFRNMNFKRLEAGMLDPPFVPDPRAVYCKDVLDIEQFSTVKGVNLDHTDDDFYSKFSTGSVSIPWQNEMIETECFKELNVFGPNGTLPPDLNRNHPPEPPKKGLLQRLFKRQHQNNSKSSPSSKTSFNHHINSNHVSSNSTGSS
UniProt P43250: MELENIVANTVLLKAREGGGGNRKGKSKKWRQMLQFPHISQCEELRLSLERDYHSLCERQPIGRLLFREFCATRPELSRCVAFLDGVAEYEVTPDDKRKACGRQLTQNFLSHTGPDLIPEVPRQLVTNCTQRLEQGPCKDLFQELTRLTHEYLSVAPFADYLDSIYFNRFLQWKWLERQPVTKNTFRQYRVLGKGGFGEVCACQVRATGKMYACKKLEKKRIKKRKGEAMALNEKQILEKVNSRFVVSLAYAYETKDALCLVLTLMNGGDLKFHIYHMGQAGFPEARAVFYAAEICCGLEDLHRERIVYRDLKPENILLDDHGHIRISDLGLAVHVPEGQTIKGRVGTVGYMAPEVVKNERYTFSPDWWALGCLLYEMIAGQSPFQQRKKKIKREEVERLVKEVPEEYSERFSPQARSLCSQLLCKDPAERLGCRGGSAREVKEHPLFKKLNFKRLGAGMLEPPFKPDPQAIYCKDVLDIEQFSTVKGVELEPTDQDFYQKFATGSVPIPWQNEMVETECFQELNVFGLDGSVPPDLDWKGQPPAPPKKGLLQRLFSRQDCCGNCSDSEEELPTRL
UniProt P49407: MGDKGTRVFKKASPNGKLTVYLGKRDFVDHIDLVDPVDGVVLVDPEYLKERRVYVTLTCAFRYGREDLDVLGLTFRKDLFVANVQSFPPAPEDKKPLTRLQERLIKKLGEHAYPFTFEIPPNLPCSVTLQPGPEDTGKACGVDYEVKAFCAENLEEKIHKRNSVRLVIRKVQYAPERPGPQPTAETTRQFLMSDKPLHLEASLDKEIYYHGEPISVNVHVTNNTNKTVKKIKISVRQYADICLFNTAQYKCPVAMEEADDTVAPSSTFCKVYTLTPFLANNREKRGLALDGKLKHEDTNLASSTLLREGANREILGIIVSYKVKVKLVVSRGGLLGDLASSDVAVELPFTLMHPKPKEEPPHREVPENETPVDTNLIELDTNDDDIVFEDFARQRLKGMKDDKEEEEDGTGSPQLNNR

Tests used:
[1] = molecular target: T1, FFAR2-VN (free fatty acid receptor 2 fused with Venus N-terminal residues 1 to 173) (human) (UniProt O15552); assay: split reporter
T1 sequence: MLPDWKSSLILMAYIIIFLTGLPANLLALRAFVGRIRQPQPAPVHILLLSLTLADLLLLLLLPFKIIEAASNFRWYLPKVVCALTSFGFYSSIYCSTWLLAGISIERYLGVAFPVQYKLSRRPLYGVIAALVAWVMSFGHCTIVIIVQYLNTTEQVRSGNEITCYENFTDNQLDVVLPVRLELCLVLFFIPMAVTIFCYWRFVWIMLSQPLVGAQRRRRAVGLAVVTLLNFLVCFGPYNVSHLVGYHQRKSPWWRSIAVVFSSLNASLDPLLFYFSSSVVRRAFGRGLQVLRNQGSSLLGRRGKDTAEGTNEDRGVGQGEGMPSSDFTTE

[2] = molecular target: AP2B1-VN (β2-subunit of the AP-2 complex fused with Venus N-terminal residues 1 to 173) (UniProt P63010); assay: split reporter

Substance	binding [1]	binding [2]
AP2B1-VC (β2-subunit of the AP-2 complex fused with Venus C-terminal residues 174 to 239) (from UniProt P63010 1-937)	no binding	
GRK2-VC (G protein-coupled receptor kinase 2 fused with Venus C-terminal residues 174 to 239) (from UniProt P25098 1-689) (enzyme)	binds	
GRK5-VC (G protein-coupled receptor kinase 5 fused with Venus C-terminal residues 174 to 239) (from UniProt P34947 1-590) (enzyme)	binds	
GRK6-VC (G protein-coupled receptor kinase 6 fused with Venus C-terminal residues 174 to 239) (from UniProt P43250 1-576) (enzyme)	binds	
β-arrestin1-VC (β-arrestin1 fused with Venus C-terminal residues 174 to 239) (from UniProt P49407 1-418)	binds	binds
